Results from PMC12582325 (Proceedings of the National Academy of Sciences of the …, 2025).
Where a SMILES comes first, the peptide text is derived from it.

Tested on: F. oxysporum germ tubes
Conditions: 13 h

Compound: WRWPCCWGQT [Scrambled]
- Effect on directional growth toward tomato root exudate (RE): no significant effect

Compound: C[C@@H](O)[C@H](NC(=O)[C@H](CS)NC(=O)[C@@H](N)Cc1c[nH]c2ccccc12)C(=O)N[C@@H](Cc1c[nH]c2ccccc12)C(=O)N[C@@H](CCCNC(=N)N)C(=O)NCC(=O)N[C@@H](CCC(N)=O)C(=O)N1CCC[C@H]1C(=O)N[C@@H](CS)C(=O)N[C@@H](Cc1c[nH]c2ccccc12)C(=O)O [Fo] (H-WCTWRGQPCW-OH; N-terminus assumed)
- Effect on directional growth toward tomato root exudate (RE): invert directional growth

Compound: CC(C)C[C@H](NC(=O)[C@H](CS)NC(=O)[C@@H](N)Cc1c[nH]c2ccccc12)C(=O)N[C@@H](Cc1c[nH]c2ccccc12)C(=O)N[C@@H](C)C(=O)NCC(=O)N[C@@H](CCC(N)=O)C(=O)N1CCC[C@H]1C(=O)N[C@@H](CS)C(=O)N[C@@H](Cc1c[nH]c2ccccc12)C(=O)O [A4] (H-WCLWAGQPCW-OH; N-terminus assumed)
- Effect on directional growth toward tomato root exudate (RE): invert directional growth
- Effect on hyphal chemotropism toward Fo pheromone: fully abolished
